Assay results published in publication PMC8141534 (The Journal of Biological Chemistry, 2021).
Where two headings read alike, the source gives them in different places. Ends that are not written are not given here.

Assays:
Rho, V. cholerae = type: biochemical, Vibrio cholerae; details: Rho 50 nM, λtR1 RNA, SD of two to three measurements
Rho, S. enterica = type: biochemical, Salmonella enterica; details: Psu 5 μM, Rho 50 nM, λtR1 RNA; SD of two to three measurements
Rho, M.tb = type: biochemical, Mycobacterium tuberculosis; details: Psu 5 μM, Rho 50 nM, poly(rC); SD of two to three measurements
Rho, X. campestris = type: biochemical, Xanthomonas campestris; details: Psu 5 μM, Rho 50 nM, poly(rC); SD of two to three measurements

Molecule	Fraction of ATP Hydrolysed (%) (Rho, V. cholerae; peptide 50 μM)	Fraction of ATP Hydrolysed (%) (Rho, S. enterica)	Fraction of ATP Hydrolysed (%) (Rho, V. cholerae; Psu 5 μM)	Fraction of ATP Hydrolysed (%) (Rho, M.tb)	Fraction of ATP Hydrolysed (%) (Rho, X. campestris)
MHHHHHHTPAQFIFFRVKVRNWHTSVSVKAWLFWRMREDFQPDTD [peptide 33]	14 ± 0.6%	–	–	–	–
MHHHHHHTPAQGMIFSVKVRTGITSVSVKAWLFWRMREDFQPDTD [peptide 16]	17 ± 0.8%	–	–	–	–
Psu: bacteriophage P4 capsid protein, natural Rho antagonist, ∼42-kDa dimer (protein) MESTALQQAFDTCQNNKAAWLQRKNELAAAEQEYLRLLSGEGRNVSRLDELRNIIEVRKWQVNQAAGRYIRSHEAVQHISIRDRLNDFMQQHGTALAAALAPELMGYSELTAIARNCAIQRATDALREALLSWLAKGEKINYSAQDSDILTTIGFRPDVASVDDSREKFTPAQNMIFSRKSAQLASRQSV	–	9 ± 0.6%	16 ± 0.3%	35 ± 12%	16 ± 3%
